{"source": "the BET-seq Pho4 binding data (Le et al. 2018)", "note": "This is one part of the list. The energies were worked out here from pooled read counts, against the library average; single values are noisy."}
{"target": "T1, Pho4 (S. cerevisiae) (UniProt P07270)", "T1 sequence": "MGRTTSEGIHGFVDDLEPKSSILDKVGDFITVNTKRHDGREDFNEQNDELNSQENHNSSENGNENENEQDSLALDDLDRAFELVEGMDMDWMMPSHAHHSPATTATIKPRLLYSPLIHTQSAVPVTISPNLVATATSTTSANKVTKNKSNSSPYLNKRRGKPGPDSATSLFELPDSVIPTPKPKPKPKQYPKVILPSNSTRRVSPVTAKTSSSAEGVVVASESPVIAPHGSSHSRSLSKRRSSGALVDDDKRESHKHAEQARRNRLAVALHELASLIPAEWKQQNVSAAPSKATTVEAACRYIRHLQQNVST", "assay": "relative binding free energy (BET-seq); higher = weaker binding", "conditions": "reference: library average", "units": {"relative binding free energy": "kcal/mol"}}
{"sequence": "GGTTTCACGTGAGATA", "relative binding free energy": 0.54}
{"sequence": "TTGTTCACGTGTTTGC", "relative binding free energy": 0.27}
{"sequence": "GTATACACGTGGCTGG", "relative binding free energy": 0}
{"sequence": "GGTCTCACGTGGGCGA", "relative binding free energy": 0.13}
{"sequence": "AATGGCACGTGCATGG", "relative binding free energy": -0.24}
{"sequence": "TCATTCACGTGTTAAT", "relative binding free energy": 0.24}
{"sequence": "TGTGACACGTGGGATC", "relative binding free energy": -0.11}
{"sequence": "GGATGCACGTGTCTTG", "relative binding free energy": -0.02}
{"sequence": "GTGCGCACGTGTGGGA", "relative binding free energy": -0.19}
{"sequence": "AGGGACACGTGTGTAA", "relative binding free energy": -0.01}
{"sequence": "AGGGTCACGTGTATTT", "relative binding free energy": 0.27}
{"sequence": "TAGTGCACGTGGCAGT", "relative binding free energy": -0.08}
{"sequence": "TTGTACACGTGTGTCT", "relative binding free energy": 0.07}
{"sequence": "TTGAGCACGTGCTTAG", "relative binding free energy": -0.13}
{"sequence": "TGACTCACGTGAGTAG", "relative binding free energy": 0.38}
{"sequence": "AATTTCACGTGGCGGA", "relative binding free energy": 0.13}
{"sequence": "GATTTCACGTGTAGGG", "relative binding free energy": 0.28}
{"sequence": "TATTCCACGTGGCGGT", "relative binding free energy": 0.11}
{"sequence": "ATGGACACGTGAGGCT", "relative binding free energy": 0.16}
{"sequence": "AAGGGCACGTGTACTG", "relative binding free energy": -0.17}
{"sequence": "CATGTCACGTGGGTCG", "relative binding free energy": -0.13}
{"sequence": "AATGTCACGTGATTTC", "relative binding free energy": 0.23}
{"sequence": "CTAGTCACGTGGGGGG", "relative binding free energy": -0.01}
{"sequence": "GATTTCACGTGTTTGA", "relative binding free energy": 0.29}
{"sequence": "AATTTCACGTGTGTAG", "relative binding free energy": 0.27}
{"sequence": "CGGTTCACGTGTTTTG", "relative binding free energy": 0.3}
{"sequence": "AGGTGCACGTGAATCG", "relative binding free energy": 0.39}
{"sequence": "TGGTCCACGTGAGTGA", "relative binding free energy": 0.19}
{"sequence": "GGGTTCACGTGGCCTG", "relative binding free energy": 0.17}
{"sequence": "TGTGGCACGTGTACAT", "relative binding free energy": -0.11}
{"sequence": "GACGGCACGTGAGAGG", "relative binding free energy": 0.27}
{"sequence": "GGTCGCACGTGCGCGG", "relative binding free energy": -0.04}
{"sequence": "TGTTGCACGTGGCCTG", "relative binding free energy": -0.24}
{"sequence": "CAAGTCACGTGGTGTA", "relative binding free energy": -0.07}
{"sequence": "GCGATCACGTGGTGGT", "relative binding free energy": 0.11}
{"sequence": "GTGTACACGTGGTTTC", "relative binding free energy": 0.14}
{"sequence": "AGTGGCACGTGTCGTC", "relative binding free energy": -0.08}
{"sequence": "AGAGGCACGTGATCGT", "relative binding free energy": -0.06}
{"sequence": "GATGGCACGTGGGGCC", "relative binding free energy": -0.29}
{"sequence": "TGCTGCACGTGAGGAT", "relative binding free energy": 0.32}
{"sequence": "GATATCACGTGTGAGT", "relative binding free energy": 0.36}
{"sequence": "AGTCACACGTGTGATT", "relative binding free energy": 0.06}
{"sequence": "GTGGTCACGTGGTCTA", "relative binding free energy": 0}
{"sequence": "CATATCACGTGTGGGA", "relative binding free energy": 0.16}
{"sequence": "ATGGACACGTGAGGGC", "relative binding free energy": 0.27}
{"sequence": "TCTGCCACGTGTGTTG", "relative binding free energy": -0.08}
{"sequence": "TGAGACACGTGATGCG", "relative binding free energy": 0.17}
{"sequence": "AGGGACACGTGTTGAA", "relative binding free energy": -0.1}
{"sequence": "GGCTGCACGTGGAGTT", "relative binding free energy": 0.15}
{"sequence": "TATTACACGTGGGTGA", "relative binding free energy": -0.06}
{"sequence": "GCGTGCACGTGGGCGA", "relative binding free energy": -0.19}
{"sequence": "CTAGGCACGTGGGTGA", "relative binding free energy": -0.27}
{"sequence": "AAGTACACGTGTGATT", "relative binding free energy": 0}
{"sequence": "ATTGACACGTGAATTG", "relative binding free energy": 0.23}
{"sequence": "GCGATCACGTGTGGGG", "relative binding free energy": 0.24}
{"sequence": "AATATCACGTGGTCGG", "relative binding free energy": 0.17}
{"sequence": "ATTGGCACGTGAGTTC", "relative binding free energy": 0.09}
{"sequence": "TTTTACACGTGCTAGG", "relative binding free energy": 0.09}
{"sequence": "GGGATCACGTGCCTGG", "relative binding free energy": 0.14}
{"sequence": "TGATGCACGTGGATAT", "relative binding free energy": -0.07}
{"sequence": "GTGAGCACGTGAGGTA", "relative binding free energy": 0.27}
{"sequence": "TTACGCACGTGTTTTA", "relative binding free energy": -0.19}
{"sequence": "AGGTCCACGTGTGCGG", "relative binding free energy": 0.04}
{"sequence": "ATTCTCACGTGGATGT", "relative binding free energy": 0.15}
{"sequence": "TGTTTCACGTGTCTTG", "relative binding free energy": 0.16}
{"sequence": "AAGGTCACGTGGCTGG", "relative binding free energy": -0.05}
{"sequence": "CAGGACACGTGGGTGG", "relative binding free energy": -0.08}
{"sequence": "TGTTCCACGTGGGGTT", "relative binding free energy": -0.07}
{"sequence": "TAATGCACGTGGTTTA", "relative binding free energy": -0.11}
{"sequence": "CTGTGCACGTGTATGA", "relative binding free energy": -0.1}
{"sequence": "GGAGGCACGTGGAGAT", "relative binding free energy": 0.05}
{"sequence": "AGCTACACGTGGGGTG", "relative binding free energy": -0.03}
{"sequence": "TTGGTCACGTGGCTCA", "relative binding free energy": -0.04}
{"sequence": "GGCGTCACGTGAGCGT", "relative binding free energy": 0.3}
{"sequence": "GAGGACACGTGCGGTT", "relative binding free energy": -0.01}
{"sequence": "TGGTTCACGTGGTGGC", "relative binding free energy": 0.23}
{"sequence": "TTGTTCACGTGTTCGT", "relative binding free energy": 0.23}
{"sequence": "AAGGTCACGTGTGGTC", "relative binding free energy": 0.16}
{"sequence": "AAGCGCACGTGTGATG", "relative binding free energy": -0.03}
{"sequence": "TTCTTCACGTGAGGAG", "relative binding free energy": 0.32}
{"sequence": "GGTATCACGTGGCCGA", "relative binding free energy": 0.32}
{"sequence": "AAGGGCACGTGCTGTA", "relative binding free energy": -0.06}
{"sequence": "TGCGTCACGTGCGTGT", "relative binding free energy": 0.02}
{"sequence": "GTTTTCACGTGTTTTC", "relative binding free energy": 0.3}
{"sequence": "GCAGTCACGTGTGATG", "relative binding free energy": 0.14}
{"sequence": "TTAGGCACGTGTTTCT", "relative binding free energy": -0.19}
{"sequence": "GTGGGCACGTGCGAGC", "relative binding free energy": -0.05}
{"sequence": "GTATCCACGTGGTGGG", "relative binding free energy": -0.08}
{"sequence": "ATTGTCACGTGACGCT", "relative binding free energy": 0.37}
{"sequence": "CGTGACACGTGATGGG", "relative binding free energy": 0.01}
{"sequence": "TTAGTCACGTGACGAG", "relative binding free energy": 0.32}
{"sequence": "TTGGTCACGTGCTCGT", "relative binding free energy": 0.13}
{"sequence": "GTTTTCACGTGTCTAG", "relative binding free energy": 0.48}
{"sequence": "GTGGGCACGTGTTAGT", "relative binding free energy": -0.03}
{"sequence": "GTGGACACGTGATGTA", "relative binding free energy": 0.26}
{"sequence": "CTTGGCACGTGTTTGC", "relative binding free energy": -0.1}
{"sequence": "ATTGTCACGTGAGCAG", "relative binding free energy": 0.22}
{"sequence": "CTTCGCACGTGAGGTT", "relative binding free energy": 0.17}
{"sequence": "TTGTGCACGTGGCGCA", "relative binding free energy": -0.16}
{"sequence": "TTTAGCACGTGGGAGA", "relative binding free energy": 0.02}
{"sequence": "TATTACACGTGTCGTG", "relative binding free energy": 0.02}
{"sequence": "ATTGGCACGTGATTAT", "relative binding free energy": -0.04}
{"sequence": "TAGTTCACGTGGTGAA", "relative binding free energy": 0.12}
{"sequence": "GAGTGCACGTGTAACG", "relative binding free energy": 0.22}
{"sequence": "GGTTCCACGTGGTGTA", "relative binding free energy": 0.07}
{"sequence": "AATTTCACGTGCGGTG", "relative binding free energy": 0.33}
{"sequence": "GTGTACACGTGTAGTA", "relative binding free energy": 0.04}
{"sequence": "TTGGTCACGTGTGGTC", "relative binding free energy": 0.18}
{"sequence": "GTAGTCACGTGTTGAG", "relative binding free energy": 0.08}
{"sequence": "TTAGCCACGTGTGTAA", "relative binding free energy": 0.02}
{"sequence": "AGTTGCACGTGGGACG", "relative binding free energy": -0.07}
{"sequence": "TAAAACACGTGGAGTT", "relative binding free energy": 0.08}
{"sequence": "GTTAGCACGTGGGCCT", "relative binding free energy": -0.13}
{"sequence": "AGTGTCACGTGTTTCT", "relative binding free energy": 0.09}
{"sequence": "GGGATCACGTGGTGAG", "relative binding free energy": 0.18}
